# Results: publication PMC5892938
# Some of the results follow. At the low end of the ranking the order means little.
# Target: GST-SBP-SLBP (stem-loop binding protein) (UniProt Q14493)
# Test: targeted RNA Bind-n-Seq;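 also: DESeq read counts versus GST-SBP nonspecific binding control pulldown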
# Settings: RBNS binding buffer: 25 mM Tris pH 7.5, 150 mM KCl, 3 mM MgCl2, 0.1% Tween, 0.5 mg/mL BSA, 1 mM DTT; 27 nM protein, 750 pM RNA pool; temperature not stated; high values mean tight binding
row,Sequence,binding signal (log2 fold change)
1,GGUCACGUCUCAAUCAACUCACUAGAGGGGGGGAAAACCCCUUUGCCCUCAAAAUCAACAGCUCGCAGUCAAG,-0.191
2,GGUCACGUCUCAAUCAACUCAUCUUCAGGAGUUUCCUCCUGUAAACUCAACAGCUCGCAGUCAAG,0.23
3,GGUCACGUCUCAAUCAACUCUUUAGAGGGGGGGAAAACCCCUUUACCCUCGUCAUCAACAGCUCGCAGUCAAG,-0.285
4,GGUCACGUCUCAAUCAACUCUAUCUCCAGGGAAAUCCCUGGUUUACUCAACAGCUCGCAGUCAAG,-0.0408
5,GGUCACGUCUCAAUCAACUCAAACGAGGGGGGGAAAACCCCUUUACCCUCAUACUCAACAGCUCGCAGUCAAG,0.0543
6,GGUCACGUCUCAAUCAACUCAAUCGAGGGGGGGAAAACCCCUUUACCCUCAUUUUCAACAGCUCGCAGUCAAG,-0.0897
7,GGUCACGUCUCAAUCAACUCUACUUCCAGGGAAAACCCUGGCAAAUUCAACAGCUCGCAGUCAAG,-0.0213
8,GGUCACGUCUCAAUCAACUCUCUAGAGGGGGGGAAAACCCCUUUGCCCUCACUAUCAACAGCUCGCAGUCAAG,0.386
9,GGUCACGUCUCAAUCAACUCUAGUCCCAGGGAAACCCCUGGCUUUUUCAACAGCUCGCAGUCAAG,0.0031
10,GGUCACGUCUCAAUCAACUCCUUAGAGGGGGGGAAAACCCCUUUACCCUCACUUUCAACAGCUCGCAGUCAAG,-0.247
11,GGUCACGUCUCAAUCAACUCAACUCCAGGAGUUUGCUCCUGCAUAUUCAACAGCUCGCAGUCAAG,0.226
12,GGUCACGUCUCAAUCAACUCCCCAGAGGGGGGGAAAACCCCUUUACCCUCCUAUUCAACAGCUCGCAGUCAAG,0.0854
13,GGUCACGUCUCAAUCAACUCAACUCCCAGGGAAAUCCCUGGCUAACUCAACAGCUCGCAGUCAAG,0.00474
14,GGUCACGUCUCAAUCAACUCAACUCCAGGAGUUUACUCCUGUUAAUUCAACAGCUCGCAGUCAAG,0.0799
15,GGUCACGUCUCAAUCAACUCCCCAGAGGGGGGGAAAACCCCUUUACCCUCAACAUCAACAGCUCGCAGUCAAG,-0.359
16,GGUCACGUCUCAAUCAACUCAAUCUCAGGAGUUUUCUCCUGUUAAUUCAACAGCUCGCAGUCAAG,0.179
17,GGUCACGUCUCAAUCAACUCUAUUUCCAGGGAAAGCCCUGGCUUAUUCAACAGCUCGCAGUCAAG,-0.203
18,GGUCACGUCUCAAUCAACUCUUCUCCAGGAGUUUUCUCCUGCUAUUUCAACAGCUCGCAGUCAAG,-0.113
19,GGUCACGUCUCAAUCAACUCUUUCCCAGGAGUUUACUCCUGUUAUCUCAACAGCUCGCAGUCAAG,0.0112
20,GGUCACGUCUCAAUCAACUCUUCUCCCAGGGAAAGCCCUGGUUAUGUCAACAGCUCGCAGUCAAG,-0.16
21,GGUCACGUCUCAAUCAACUCAUUUCCCAGGGAAAGCCCUGGUAAUCUCAACAGCUCGCAGUCAAG,0.334
22,GGUCACGUCUCAAUCAACUCUACUCCCAGGGAAAACCCUGGUAAACUCAACAGCUCGCAGUCAAG,0.0113
23,GGUCACGUCUCAAUCAACUCAUCUCCCAGGGAAACCCCUGGUUAAUUCAACAGCUCGCAGUCAAG,0.0981
24,GGUCACGUCUCAAUCAACUCAUCAGAGGGGGGGAAAACCCCUUUACCCUCACUAUCAACAGCUCGCAGUCAAG,-0.0805

row,Sequence,binding signal (log2 fold change)
1,GGUCACGUCUCAAUCAACUCAACUUCAGGAGUUUUCUCCUGUAUAUUCAACAGCUCGCAGUCAAG,0.0898
2,GGUCACGUCUCAAUCAACUCCUAAGAGGGGGGGAAAACCCCUUUACCCUCAAUCUCAACAGCUCGCAGUCAAG,0.429
3,GGUCACGUCUCAAUCAACUCAUCUCCAGGAGUUUCCUCCUGUAUUCUCAACAGCUCGCAGUCAAG,-0.0258
4,GGUCACGUCUCAAUCAACUCCCAAAGGCUUUUCUUAGAGCCACCCAUCAACAGCUCGCAGUCAAG,0.496
5,GGUCACGUCUCAAUCAACUCACUAGAGGGGGGGAAAACCCCUUUGCCCUCAUACUCAACAGCUCGCAGUCAAG,0.37
6,GGUCACGUCUCAAUCAACUCUUCUCCCAGGGAAAACCCUGGUUAACUCAACAGCUCGCAGUCAAG,0.135
7,GGUCACGUCUCAAUCAACUCAAUUCCAGGAGUUUUCUCCUGUUUACUCAACAGCUCGCAGUCAAG,0.0544
8,GGUCACGUCUCAAUCAACUCAUCUUCCAGGGAAACCCCUGGCAAUUUCAACAGCUCGCAGUCAAG,0.00517
9,GGUCACGUCUCAAUCAACUCAAUCUCCAGGGAAAGCCCUGGCUAAUUCAACAGCUCGCAGUCAAG,-0.0101
10,GGUCACGUCUCAAUCAACUCAUCUUCAGGAGUUUGCUCCUGCAUAUUCAACAGCUCGCAGUCAAG,-0.0242
11,GGUCACGUCUCAAUCAACUCUUUCCCAGGAGUUUACUCCUGUUUACUCAACAGCUCGCAGUCAAG,-0.0102
12,GGUCACGUCUCAAUCAACUCUUUCCCAGGAGUUUUCUCCUGUUUUUUCAACAGCUCGCAGUCAAG,0.117
13,GGUCACGUCUCAAUCAACUCUUCUUCCAGGGAAAGCCCUGGCUUUUUCAACAGCUCGCAGUCAAG,-0.352
14,GGUCACGUCUCAAUCAACUCAUCGCCAGGAGUUUACUCCUGCAAAUUCAACAGCUCGCAGUCAAG,0.281
15,GGUCACGUCUCAAUCAACUCAAUCUCCAGGGAAAUCCCUGGUAAUCUCAACAGCUCGCAGUCAAG,-0.113
16,GGUCACGUCUCAAUCAACUCAAUUCCAGGAGUUUGCUCCUGCUUACUCAACAGCUCGCAGUCAAG,-0.0245
17,GGUCACGUCUCAAUCAACUCUAUCUCAGGAGUUUCCUCCUGCUUACUCAACAGCUCGCAGUCAAG,0.115
18,GGUCACGUCUCAAUCAACUCACACGAGGGGGGGAAAACCCCUUUACCCUCACCAUCAACAGCUCGCAGUCAAG,-0.161
19,GGUCACGUCUCAAUCAACUCAUUCCCAGGAGUUUACUCCUGUUAUUUCAACAGCUCGCAGUCAAG,-0.0683
20,GGUCACGUCUCAAUCAACUCUAUCUCAGGAGUUUCCUCCUGCAAUCUCAACAGCUCGCAGUCAAG,0.082
21,GGUCACGUCUCAAUCAACUCAACUUCCAGGGAAAGCCCUGGCGUAUUCAACAGCUCGCAGUCAAG,0.0429
22,GGUCACGUCUCAAUCAACUCCUCUGAGGGGGGGAAAACCCCUUUACCCUCUACAUCAACAGCUCGCAGUCAAG,-0.178
23,GGUCACGUCUCAAUCAACUCUCUAGAGGGGGGGAAAACCCCUUUACCCUCACUCUCAACAGCUCGCAGUCAAG,-0.265
